# In the supplement of paper PMC3334620:
# Over roughly 33,000 sequences, “E-score (-0.5 to 0.5)” has its median near -0.054; the highest 2% begin near 0.35. The list shows a part of the results.
# Molecular target: T1, Stb5 (UniProt P38699)
# T1 sequence: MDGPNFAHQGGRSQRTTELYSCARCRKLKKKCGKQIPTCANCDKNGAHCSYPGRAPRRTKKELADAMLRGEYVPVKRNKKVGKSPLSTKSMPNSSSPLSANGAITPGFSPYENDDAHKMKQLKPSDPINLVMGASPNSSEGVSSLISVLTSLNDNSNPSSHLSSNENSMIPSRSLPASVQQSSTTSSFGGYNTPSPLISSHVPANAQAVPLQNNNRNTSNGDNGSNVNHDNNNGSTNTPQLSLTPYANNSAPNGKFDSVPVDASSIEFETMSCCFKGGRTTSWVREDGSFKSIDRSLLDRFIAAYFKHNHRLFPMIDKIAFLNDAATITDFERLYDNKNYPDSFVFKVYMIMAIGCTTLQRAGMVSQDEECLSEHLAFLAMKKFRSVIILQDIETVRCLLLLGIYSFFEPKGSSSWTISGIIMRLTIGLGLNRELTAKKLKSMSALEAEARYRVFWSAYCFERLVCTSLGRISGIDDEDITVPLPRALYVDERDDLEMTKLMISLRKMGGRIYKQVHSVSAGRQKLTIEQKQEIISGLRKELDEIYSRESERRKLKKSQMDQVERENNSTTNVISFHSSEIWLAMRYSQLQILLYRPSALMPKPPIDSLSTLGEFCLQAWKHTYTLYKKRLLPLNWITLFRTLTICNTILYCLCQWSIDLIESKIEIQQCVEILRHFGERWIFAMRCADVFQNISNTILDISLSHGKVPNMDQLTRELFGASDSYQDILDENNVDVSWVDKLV
# Experiment: PBM E-score (8-mer binding enrichment) (E-score (-0.5 to 0.5)); higher = stronger / more preferred TF binding; most listed sequences are background and not binding sites
# Conditions: protein concentration: 200 nM; construct: GST-full length
# In short: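 Bound GST-tagged yeast transcription factors, applied at about 100-200 nM to double-stranded universal all-10-mer Agilent arrays, were detected with fluorescent anti-GST. Scans were normalised with masliner. A modified Wilcoxon-Mann-Whitney statistic, the E-score, was assigned to each ungapped eight-base word pooled with its reverse complement by the Universal PBM Analysis Suite.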
row,Sequence,PBM E-score
1,ACTGAGCA,-0.366
2,AAAGAAGT,-0.0835
3,TCATCACA,-0.313
4,GAAGATTA,0.0338
5,AACGAATT,-0.088
6,TAGGTGCA,-0.342
7,ACACAGCT,-0.0993
8,CCAACAAA,-0.0678
9,ACAGGAAG,-0.217
10,GAAGAACA,-0.0778
11,AAACCTAA,0.0896
12,CGACGGCG,0.328
13,CGCCAATA,0.0277
14,ACTTACCT,-0.0336
15,AATGCCTA,-0.0895
16,GAAGTAAA,-0.0343
17,AGTGAGAC,-0.111
18,TCATGGGA,-0.273
19,CTAGGCGC,-0.0874
20,CTATACCA,-0.0493
21,CGAGTCAG,-0.0693
22,AACTTGAT,-0.0772

row,Sequence,PBM E-score
1,GGACGTAC,0.0333
2,AGTAGTAT,-0.174
3,ACAGCAGC,-0.164
4,CACTCCAG,-0.215
5,CAGCTGAG,-0.231
6,CTAGTCGA,-0.0352
7,ACCAGACA,-0.0752
8,GACCATGA,-0.00839
9,CTGAACCA,-0.25
10,TGAATCCA,-0.18
11,GTCCAAAA,0.163
12,AATCGTGC,-0.0497
13,CAACGAGC,-0.172
14,AACGACAT,0.0144
15,AAAAAGTC,0.175
16,TGCAGACA,-0.164
17,AAGGCTGC,-0.163
18,CTTTCAGA,-0.124
19,GGCCTCAC,-0.0859
20,AAACTGTG,-0.215
21,GATGACAA,-0.0705
22,AGGCGCTC,-0.0484

row,Sequence,PBM E-score
1,TAACTCAA,-0.142
2,CCTTGCAG,-0.122
3,GCGAACAC,-0.109
4,ATCTGCTG,-0.241
5,ATATGCGA,0.113
6,CCAGGGGC,-0.0801
7,CTCCCCCA,-0.0446
8,CTCACCTC,-0.37
9,CCTCGGGC,0.162
10,CGCGAGTA,0.122
11,CCACATTA,-0.0924
12,ACGGAGGA,0.125
13,AACGACGG,0.242
14,CATTGTGA,-0.0411
15,ACTGACTC,-0.0316
16,GATCCATA,0.0949
17,GAACGCCA,-0.183
18,ACCCGGTA,0.198
19,TGCTTGAA,-0.188
20,CAAGTGAC,-0.13
21,CTGAGGTC,-0.297
22,CTGGGTTA,-0.204

row,Sequence,PBM E-score
1,GAGGTTCC,-0.0824
2,CCTCTTGC,-0.00087
3,AAAGCTAT,-0.0265
4,AATGCACC,0.11
5,CATAGAGC,-0.14
6,CTGGAAGC,-0.3
7,AATTAACC,0.305
8,ATACGACA,-0.228
9,ATAAGAAT,-0.0685
10,AAAGGCCA,-0.146
11,AGCAACGC,0.103
12,ACATTACA,-0.0794
13,ACCAGTAA,0.0498
14,GCGTACCA,-0.102
15,AGTGGCGC,0.07
16,GGCAGACC,-0.0351
17,GAGTCGGC,0.245
18,AGGGTGTG,-0.307
19,ACCTTCGT,-0.176
20,CTCTTTCA,-0.173
